Test results: PubChem BioAssay AID1345082 (National Center for Advancing Translational Sciences (NCATS), 2018)
Values joined by “and” are separate entries in the source; they are usually repeats but may differ in a detail not shown here. Equal entries are not always repeated. In all, about 94,000 compounds went through this assay and about 4,000 (4.3%) were called active. Inconclusive means that the source gave no clear call. Such entries were picked first, then a sample of the others. Calls come from the whole dose curve; as a rule, active = well fitted inhibition curve with a large enough effect; inconclusive = small, poorly fitted or top-dose-only effect; inactive = no such curve, though single readings can be large or run the other way. Where the call is inconclusive, the potency comes from a doubtful curve fit.

test: Cytotoxic Profiling in NIH 3T3 Cell Line of Diverse Libraries Using Quantitative High-Throughput Screening; details: NIH 3T3 viability, CellTiter-Glo ATP luminescence, 48-72 h; activity change, negative = cytotoxicity: at 96.7 µM (top of the series) unless noted; series mostly up to 96.7 µM; note: nearly all actives have a fitted effect of over 55% in size
Procedure, shortened: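 First NIH 3T3 cells are plated at 400 cells/well; next compound is pinned in; then plates incubate 48 or 72 hr at 37 °C; finally CellTiter-Glo is added and luminescence read after 10 min.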
% is set by controls: 0 for no effect and ±100 for the full control effect; potency is the fitted concentration of half-maximal effect; tags give direction and shape of the fitted curve.

Row | Structure (SMILES) | Potency | activity change, negative = cytotoxicity
1 | CSc1ccc(-c2ccccc2CN)cc1 | inconclusive: 100 µM [inhibitor, partial curve, poor fit] | 
2 | O=C(NCc1ccc(F)cc1)c1ccc2nnc(CC3CC3)n2c1 | inconclusive: 100 µM [inhibitor, partial curve, poor fit] | 
3 | O=C(c1ccc(F)cc1F)N1CCC2(CC1)N=C(c1ccc(Br)cc1)NO2 | inconclusive: 50.1 µM [inhibitor, partial curve, poor fit] | 
4 | CN1C[C@H](NCc2cccc3c2OCO3)CCC[C@@H](C(=O)NCc2cc(F)cc(F)c2)CC1=O | inconclusive: 56.2 µM [inhibitor, partial curve, poor fit] | 
5 | CN(C)c1ccc(CN2Cc3[nH]cnc3C[C@H]2C(=O)N2CCC(Cc3ccccc3)CC2)cc1 | inconclusive: 56.2 µM [inhibitor, partial curve, poor fit] | 
6 | CC(C)CN1C(=O)COC[C@@H]1[C@H](O)c1ccc(NC(=O)c2cccnc2)cc1 |  | inactive: -6.78% [at 138 µM]
7 | Cc1ccc(CN2CC3(C2)NC(=O)c2ccccc2O3)cc1 | inconclusive: 63.1 µM [inhibitor, partial curve, poor fit] | 
8 | CN1C(=O)N(C)C2(CCN(Cc3cc(F)ccc3F)C2)C1=O (configuration not stated) |  | inactive: -5.75%
9 | Cc1nn2c(c1-c1ccccc1OCc1ccccc1)N(C(=O)C1CCC1)CCC2 | inconclusive: 89.1 µM [inhibitor, partial curve, poor fit] | 
10 | CCCn1c(C)c(CC(=O)NC(C)Cn2cccn2)c2c1CC(C)(C)CC2=O (configuration not stated) |  | inactive: 3.64%
11 | Cc1nnc([C@@H]2CC(F)(F)CN2S(=O)(=O)c2cccc(F)c2)o1 |  | inactive: -4.06%
12 | CCc1noc(-c2cn(C3CCN(C(=O)c4cccc(Cl)c4)CC3)nn2)n1 | inconclusive: 35.5 µM [inhibitor, partial curve] | 
13 | Cc1cc(C[C@@H]2COC[C@@H]2NC(=O)c2csc(Cc3ccccc3)n2)on1 | inconclusive: 89.1 µM [inhibitor, single point] | 
14 | O=C(NCCc1ccccc1)c1nc2sccn2c1-c1ccc(F)cc1 | inconclusive: 50.1 µM [inhibitor, partial curve, poor fit] | 
15 | CC1(C(=O)NCc2cnccn2)CCCc2cnc(Nc3ccccc3F)nc21 (configuration not stated) | inconclusive: 89.1 µM [inhibitor, partial curve, poor fit] | 
16 | O=C(NCCOc1ccccc1)[C@@H]1C[C@@H](c2ccc(F)cc2)N([S+](=O)([O-])c2ccccc2)C1 | inconclusive: 44.7 µM [inhibitor, partial curve, poor fit] | 
17 | O=C(C1CN(C2CCCCC2)C(=O)N1)N1CCC(c2ccccc2)CC1 (configuration not stated) | inconclusive: 50.1 µM [inhibitor, partial curve, poor fit] | 
18 | CCn1c(C2CCCN(C(=O)C(C)C)C2)nn(C)c1=O (configuration not stated) |  | inactive: 2.5%
19 | C#CCN(C)C(=O)c1onc(-c2ccc(OC)cc2)c1[C@H](C)O |  | inactive: -11.7% [at 138 µM]
20 | C=CCn1cc(-c2c(-c3ccccc3)ncn2CCCC2CCOC2)cn1 (configuration not stated) | inconclusive: 56.2 µM [inhibitor, partial curve, poor fit] | 
21 | CC(C)c1ccc(CC(=O)N2CCCc3ncc(C(=O)NCCN(C)C)cc32)cc1 | active: 100 µM | 

Row | Structure (SMILES) | Potency | activity change, negative = cytotoxicity
22 | O=C(NCc1ccc(C(F)(F)F)cc1)C1CCCN1c1nccc(Nc2ccccc2F)n1 (configuration not stated) | inconclusive: 39.8 µM [inhibitor, partial curve, poor fit] | 
23 | O=C(c1ccc(C(F)(F)F)cc1)N1CCC2(CC1)CNc1ccccc1[S+](=O)([O-])N2 |  | inactive: -11.9%
24 | CN1CCN(c2ccc3ncc(Nc4cccc(C(F)(F)F)c4)n3n2)CC1 | inconclusive: 56.2 µM [inhibitor, partial curve, poor fit] | 
25 | Cn1c(CNC(=O)CC[C@H]2NC(=O)c3ccccc3NC2=O)nc2ccccc21 |  | inactive: -15.4%
26 | Cc1cc2nc(CO[C@H]3CN(Cc4ccc5c(c4)OCO5)C[C@H]3F)[nH]c2cc1C | inconclusive: 89.1 µM [inhibitor, partial curve, poor fit] | 
27 | CCc1cccc(C)c1NC(=O)Cn1nc2n(c1=O)CCCCC2 |  | inactive: -1.56%
28 | O=C(CCc1conc1-c1cccc(F)c1)NCc1ccc(F)cc1 | inconclusive: 79.4 µM [inhibitor, partial curve, poor fit] | 
29 | COc1cccc(C(=O)N2CCN(c3nccc(Nc4ccccc4Cl)n3)CC2)c1 | inconclusive: 28.2 µM [inhibitor, partial curve, poor fit] | 
30 | CS(=O)(=O)N1CCC(CC(=O)N2CC=C(c3ccccc3)CC2)C1 (configuration not stated) |  | inactive: -13%
31 | COc1ccc(-c2cc(C(=O)N3CCC(Cc4ccccc4)CC3)c3cnn(C)c3n2)cc1 | inconclusive: 20 µM [inhibitor, full curve] | 
32 | O=c1[nH]c(C2CCCN([S+](=O)([O-])c3cccc(C(F)(F)F)c3)C2)nn1-c1ccccc1 (configuration not stated) | inconclusive: 50.1 µM [inhibitor, partial curve, poor fit] | 
33 | Cc1ccc(NC(=O)N2CCC(Oc3ncccc3C(=O)N(C)C)C2)cc1 (configuration not stated) |  | inactive: -1.16%
34 | CCN(CC)C(=O)C(C)[C@@H]1CC[C@@]2(C)CC[C@H](NC(=O)C3CC3)[C@@H](C)[C@@H]2[C@H]1O (some centres not stated) | inconclusive: 79.4 µM [inhibitor, partial curve, poor fit] | 
35 | CNC(=O)CCn1ncc2cc(OCc3ccccc3-c3cccc(O)c3)ccc21 | inconclusive: 56.2 µM [inhibitor, partial curve, poor fit] | 
36 | CC(C)CC1=NS(=O)(=O)c2cc(NC(=O)C3CC3)ccc2N1c1ccccc1 | inconclusive: 50.1 µM [inhibitor, partial curve, poor fit] | 
37 | COc1ccc(CN2Cc3[nH]nc(-c4ccnn4C)c3CC2=O)cc1 | inconclusive: 35.5 µM [inhibitor, partial curve, poor fit] | 
38 | CCN1c2cc(C(=O)NCc3ccccc3OC)ccc2C(=O)N2CCCCC21 (configuration not stated) |  | inactive: -25.2%
39 | Cc1cc(C)c(CN2CCC3(Cc4ccccc4CNC3=O)C2)c(C)c1 (configuration not stated) | inconclusive: 44.7 µM [inhibitor, partial curve, poor fit] | 
40 | CC(C)CCN1CCC2(CC1)Cc1ccccc1NC2=O | inconclusive: 100 µM [inhibitor, partial curve, poor fit] | 
41 | COc1cc2c(cc1-c1ccco1)OCC(C)(C)CC2CO (configuration not stated) | inconclusive: 70.8 µM [inhibitor, single point] | 
42 | O=C([C@H]1C[C@H](Oc2ccccc2)CN1C(=O)CCc1ccccc1)N1CCOCC1 |  | inactive: 2.94%

Row | Structure (SMILES) | Potency | activity change, negative = cytotoxicity
43 | Cc1cc(=O)n(CC(=O)Nc2cc(Cl)ccc2C)c(N2CCN(c3ccccc3)CC2)n1 | inconclusive: 70.8 µM [inhibitor, single point] | 
44 | Cc1ccc2nc(C3CCCN(Cc4ccccc4)C3)[nH]c(=O)c2c1 (configuration not stated) | inactive and inconclusive: 89.1 µM [inhibitor, partial curve] | 
45 | Cc1ccccc1Cn1cc(-c2ccncc2)cc1C(=O)NCc1ccncc1 | inconclusive: 50.1 µM [inhibitor, partial curve, poor fit] | 
46 | COc1ccccc1-c1cccc(CN2CCCC(C(=O)NC3CCOC3)C2)c1 (configuration not stated) | inconclusive: 50.1 µM [inhibitor, partial curve, poor fit] | 
47 | Cn1ccc(NC(=O)c2ccc3c(c2)C2(CCN(CC4CC4)C2)CN3Cc2ccccc2)n1 (configuration not stated) | inconclusive: 14.1 µM [inhibitor, full curve, poor fit] | 
48 | CC(C)c1noc(-c2cn(C3CCN(C(=O)c4cc5ccccc5[nH]4)C3)nn2)n1 (configuration not stated) | inconclusive: 20 µM [inhibitor, full curve] | 
49 | CSc1ccc(-c2nc(CN(C)Cc3cc(C)no3)c(C)o2)cc1 | inconclusive: 63.1 µM [inhibitor, partial curve, poor fit] | 
50 | CCOC(=O)C1=C(C)N=C2SC=C(CC(=O)Nc3ccc(C)c(C)c3)N2C1c1cccc(OC)c1 (configuration not stated) | active: 39.8 µM | 
51 | COc1cccc(-c2cc(C(=O)NCc3cccnc3)c3c(c2)N(C)CCO3)c1OC | inconclusive: 112 µM [inhibitor, single point] | 
52 | CCCN(C)c1nccnc1OC1CCN(C(=O)c2c(F)cccc2F)C1 (configuration not stated) | inconclusive: 50.1 µM [inhibitor, partial curve, poor fit] | 
53 | COc1ccc(-c2ccc(C(=O)N3CCC(NC(=O)C4CC4)C3)cc2)nn1 (configuration not stated) |  | inactive: 3.59%
54 | COc1ncccc1-c1cc(C(=O)N2CCOCC2)c2c(c1)ncn2C | inconclusive: 112 µM [inhibitor, partial curve, poor fit] | 
55 | CS(=O)(=O)N(C1CC1)C1CCOC2(CCN(C(=O)CCC3CCCC3)CC2)C1 (configuration not stated) | inconclusive: 44.7 µM [inhibitor, partial curve, poor fit] | 
56 | CC(NC(=O)c1cc(-c2ccncc2)cn1C)c1ccc(F)cc1 (configuration not stated) |  | inactive: -24.1%
57 | O=C(Cc1ccsc1)NCCC1CCN(C(=O)Nc2ccc(F)cc2F)CC1 |  | inactive: -19.6%
58 | NCCc1cccc(CN2CCC(Oc3cccc(F)c3)CC2)c1 | inconclusive: 50.1 µM [inhibitor, partial curve, poor fit] | 
59 | COc1ccc(-n2c(=O)c(C(=O)NCc3cccc(Cl)c3)nc3cccnc32)cc1 | inconclusive: 50.1 µM [inhibitor, partial curve, poor fit] | 
60 | CCC1(O)CCC12CCN(C(=O)CCc1nc3ccccc3s1)CC2 (configuration not stated) | inconclusive: 44.7 µM [inhibitor, partial curve, poor fit] | 
61 | Cc1cccc(-n2c(=O)c3c(cc(C)n3C)n(CC(=O)Nc3ccccc3F)c2=O)c1 |  | inactive: -19.8%
62 | Cc1ccnc(NC(=O)C2CC(=O)N(c3n[nH]c4cc(Br)ccc34)C2)c1 (configuration not stated) | inconclusive: 70.8 µM [inhibitor, single point] | 
